Laboratory results taken from PMC4336329 (PLoS ONE, 2015).
The whole screen tested about 310,000 compounds, of which about 2,200 (0.71%) showed an effect of 50% or more. Effects have a minus sign here. The list shows a part of the results.

Each compound was assayed against human ether-à-go-go-related gene (hERG) potassium channel (human, UniProt Q12809) (assay: primary screen, population patch clamp on CHO cells stably expressing hERG).
Sequence of human ether-à-go-go-related gene (hERG) potassium channel (Q12809 whole entry, looked up): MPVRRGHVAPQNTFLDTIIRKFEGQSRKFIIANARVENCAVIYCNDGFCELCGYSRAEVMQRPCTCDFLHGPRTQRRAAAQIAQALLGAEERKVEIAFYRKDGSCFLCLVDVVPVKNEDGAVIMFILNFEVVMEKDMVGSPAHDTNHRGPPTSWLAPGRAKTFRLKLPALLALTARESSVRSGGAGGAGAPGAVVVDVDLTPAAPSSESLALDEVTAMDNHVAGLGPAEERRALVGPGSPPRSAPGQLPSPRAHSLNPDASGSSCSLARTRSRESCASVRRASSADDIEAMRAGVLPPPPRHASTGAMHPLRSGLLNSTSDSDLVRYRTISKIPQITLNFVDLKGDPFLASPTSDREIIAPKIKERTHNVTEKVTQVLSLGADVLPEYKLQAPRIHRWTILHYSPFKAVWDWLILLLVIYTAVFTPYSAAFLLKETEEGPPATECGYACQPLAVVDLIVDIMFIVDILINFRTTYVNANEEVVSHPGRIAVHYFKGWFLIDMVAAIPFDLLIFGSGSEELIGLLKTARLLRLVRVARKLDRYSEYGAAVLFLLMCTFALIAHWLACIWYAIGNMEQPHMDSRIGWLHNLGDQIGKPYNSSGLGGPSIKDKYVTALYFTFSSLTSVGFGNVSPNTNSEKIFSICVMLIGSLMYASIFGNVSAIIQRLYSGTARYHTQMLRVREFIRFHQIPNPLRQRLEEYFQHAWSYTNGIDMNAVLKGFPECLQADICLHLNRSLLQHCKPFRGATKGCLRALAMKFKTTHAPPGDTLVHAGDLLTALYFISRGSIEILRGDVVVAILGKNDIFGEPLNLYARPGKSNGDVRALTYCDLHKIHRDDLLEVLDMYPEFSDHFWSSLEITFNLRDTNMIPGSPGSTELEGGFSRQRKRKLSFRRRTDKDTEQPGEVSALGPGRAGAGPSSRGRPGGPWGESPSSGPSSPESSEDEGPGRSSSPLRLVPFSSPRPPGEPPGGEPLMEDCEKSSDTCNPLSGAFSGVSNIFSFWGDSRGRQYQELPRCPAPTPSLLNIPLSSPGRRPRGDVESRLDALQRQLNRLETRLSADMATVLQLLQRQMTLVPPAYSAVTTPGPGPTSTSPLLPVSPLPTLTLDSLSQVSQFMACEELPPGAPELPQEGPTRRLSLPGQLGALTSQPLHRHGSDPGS
In the case of `C=CCn1c(=O)/c(=C/c2ccc(Cl)cc2)s/c1=C(/C#N)c1nnc2n1CCCCC2`, the “hERG current change (%, negative = inhibition) at 1uM” value is reported as 6.08%.
`CCCCCOC(=O)C1=C(C)NC(=O)NC1c1ccccc1OCC` (centres unmarked) was tested, and the “hERG current change (%, negative = inhibition) at 1uM” value was -2.12%.
In the case of `O=C(CSc1nnc(-c2ccccc2NC(=O)c2ccccc2)o1)OC1CCCCC1`, the “hERG current change (%, negative = inhibition) at 1uM” value is reported as -15.7%.
For `Cc1cccc(C)c1NC(=O)CN(C)C(=O)/C=C/c1cccs1`, the “hERG current change (%, negative = inhibition) at 1uM” value was 10.5%.
In the case of `COc1ccc(CC(=O)NC2CCCc3ccccc32)cc1` (centres unmarked), the “hERG current change (%, negative = inhibition) at 1uM” value is reported as 9.44%.
With `COc1ccc(/C(O)=C2/C(=O)C(=O)N(CCCN3CCOCC3)C2c2ccc(OC)cc2)cc1` (centres unmarked) the “hERG current change (%, negative = inhibition) at 1uM” value was 21.1%.
In the case of `COC(=O)C1(CCSC)NC(c2ccc(O)cc2)C2C(=O)N(c3ccc(F)cc3)C(=O)C21` (centres unmarked), the “hERG current change (%, negative = inhibition) at 1uM” value is reported as 0.164%.
With `CC1(C)CC2(CC(c3ccccc3F)c3cc(Cl)c(O)cc3O2)NC(=S)N1` (centres unmarked) the “hERG current change (%, negative = inhibition) at 1uM” value was 13.7%.
With `COC(=O)c1oc2ccccc2c1NC(=O)c1ccccc1O` the “hERG current change (%, negative = inhibition) at 1uM” value was 16.2%.
With `O=C(NCc1ccc(Cl)cc1)C(=O)c1cn(CC(=O)N2CCOCC2)c2ccccc12` the “hERG current change (%, negative = inhibition) at 1uM” value was 23.8%.
In the case of `Cc1ccc(S(=O)(=O)N(CCCO)Cc2cc3c(C)ccc(C)c3[nH]c2=O)cc1`, the “hERG current change (%, negative = inhibition) at 1uM” value is reported as -6.63%.
In the case of `CCOC(=O)C1=C(CN2CCOCC2)NC(=O)NC1c1cc(C)ccc1C` (centres unmarked), the “hERG current change (%, negative = inhibition) at 1uM” value is reported as 7.88%.
In the case of `CCC(=O)c1ccc(OCC(=O)N2CCN(S(=O)(=O)c3ccc(Cl)s3)CC2)cc1`, the “hERG current change (%, negative = inhibition) at 1uM” value is reported as -1.74%.
For `O=C(/C=C/c1cc(Br)ccc1O)c1ccco1`, the “hERG current change (%, negative = inhibition) at 1uM” value was 13.5%.
In the case of `Cc1c(C(=O)Nc2nnc(C3CC3)s2)oc2c(Cl)cccc12`, the “hERG current change (%, negative = inhibition) at 1uM” value is reported as 12.5%.
With `O=C(c1ccco1)N1CCN(C(=O)N2CCOCC2)CC1` the “hERG current change (%, negative = inhibition) at 1uM” value was -2.46%.
`Clc1ccc(SCc2cn3ccccc3n2)cc1` was tested, and the “hERG current change (%, negative = inhibition) at 1uM” value was 13.1%.
With `N/C(=N\OC(=O)c1cccnc1)c1ccccc1Cl` the “hERG current change (%, negative = inhibition) at 1uM” value was 16.4%.
In the case of `CCNc1nc(NCC)n2c(SCC(=O)Nc3ccc(C)c(C)c3)nnc2n1`, the “hERG current change (%, negative = inhibition) at 1uM” value is reported as 1.74%.
For `Cc1ccc(-c2nc(CS(=O)CC(=O)N3CCN(c4ccccc4)CC3)c(C)o2)cc1` (centres unmarked), the “hERG current change (%, negative = inhibition) at 1uM” value was 6.49%.
With `Cn1cc(Cl)c(C(=O)NNC(=S)NC2CCCCC2)n1` the “hERG current change (%, negative = inhibition) at 1uM” value was 5.04%.
`O=S(=O)(c1ccc(Br)c2ccccc12)N1CCOCC1` was tested, and the “hERG current change (%, negative = inhibition) at 1uM” value was 14.4%.
For `CCc1cccc(C)c1NC(=S)NCC1CCN(c2ccc(OC)cc2)C1` (centres unmarked), the “hERG current change (%, negative = inhibition) at 1uM” value was 6.21%.
With `O=C1CSC(c2ccccc2[N+](=O)[O-])N1c1ccccc1` (centres unmarked) the “hERG current change (%, negative = inhibition) at 1uM” value was 16.2%.
For `C/C(=N\NC(=S)NC1CCCCC1)c1ccc(C)o1`, the “hERG current change (%, negative = inhibition) at 1uM” value was 8.3%.
For `CCOC(OCC)P(=O)(c1ccccc1)c1ccccc1`, the “hERG current change (%, negative = inhibition) at 1uM” value was 0.434%.
With `CCCCCC(C)NC(=O)CN1C(=O)NC(C)(c2ccc3ccccc3c2)C1=O` (centres unmarked) the “hERG current change (%, negative = inhibition) at 1uM” value was 13.7%.
`CCc1ccccc1NC(=O)CSc1nnc(CNC(=O)c2ccco2)n1C` was tested, and the “hERG current change (%, negative = inhibition) at 1uM” value was 13%.
In the case of `CC(=O)NCCNc1ccc([N+](=O)[O-])cn1`, the “hERG current change (%, negative = inhibition) at 1uM” value is reported as 6.56%.
For `COc1ccc(Cc2c(O)nc(SCC(=O)NC34CC5CC(CC(C5)C3)C4)[nH]c2=O)cc1`, the “hERG current change (%, negative = inhibition) at 1uM” value was 15.3%.
In the case of `COc1ccc(N(CC(=O)N2CCCCCC2)S(=O)(=O)c2ccc(OC)c(OC)c2)cc1`, the “hERG current change (%, negative = inhibition) at 1uM” value is reported as 8.15%.
`CC1CCCCC1NC(=O)CSCC(=O)O` (centres unmarked) was tested, and the “hERG current change (%, negative = inhibition) at 1uM” value was 7.14%.
With `Cc1nn(Cc2ccccc2Cl)c(Cl)c1/C=C/C(=O)OCC(=O)NC1CCS(=O)(=O)C1` (centres unmarked) the “hERG current change (%, negative = inhibition) at 1uM” value was 15.3%.
`CS(=O)(=O)c1ccc2nc(NC(NC(=O)c3ccco3)(C(F)(F)F)C(F)(F)F)sc2c1` was tested, and the “hERG current change (%, negative = inhibition) at 1uM” value was -10.8%.
For `O=C(CC1COc2ccccc2O1)NCc1ccccc1` (centres unmarked), the “hERG current change (%, negative = inhibition) at 1uM” value was -9.82%.
`CCOC(=O)N1CCN(C(=O)C2CC(=O)N(c3ccc(C)cc3)C2)CC1` (centres unmarked) was tested, and the “hERG current change (%, negative = inhibition) at 1uM” value was -18.5%.
In the case of `CN(CCc1nc2ccccc2[nH]1)Cc1nc(CC2CC2)no1`, the “hERG current change (%, negative = inhibition) at 1uM” value is reported as 6.57%.
`Cc1onc(-c2ccccc2)c1C(=O)N(Cc1ccccn1)Cc1ccccn1` was tested, and the “hERG current change (%, negative = inhibition) at 1uM” value was -2.84%.
In the case of `Cn1cc([N+](=O)[O-])c(C(=O)NCc2ccccc2)n1`, the “hERG current change (%, negative = inhibition) at 1uM” value is reported as 11.1%.
For `CCOC(=O)Cn1nnnc1C(CC)N(Cc1cccs1)Cc1cc2ccc(OC)cc2[nH]c1=O` (centres unmarked), the “hERG current change (%, negative = inhibition) at 1uM” value was -6.95%.
For `O=C(Cn1cc(SCc2ccccc2Cl)c2ccccc21)N1CCOCC1`, the “hERG current change (%, negative = inhibition) at 1uM” value was 4.12%.
With `CCOc1ccc(-c2nc(C#N)c(N3CCN(C)CC3)o2)cc1` the “hERG current change (%, negative = inhibition) at 1uM” value was -2.87%.
`Cc1csc(NC(=O)c2cc(-c3ccccc3)nc3ccccc23)n1` was tested, and the “hERG current change (%, negative = inhibition) at 1uM” value was -3.23%.
With `COc1ccc(-n2nc(C(=O)NCC(=O)N3CCN(Cc4ccccc4)CC3)c3ccccc3c2=O)c(OC)c1` the “hERG current change (%, negative = inhibition) at 1uM” value was 4.15%.
With `Cc1ccc(Nc2ccc3nonc3c2[N+](=O)[O-])cc1` the “hERG current change (%, negative = inhibition) at 1uM” value was 3.43%.
In the case of `Cc1ccc(NCc2n[nH]c(=S)n2-c2ccccc2)cc1Cl`, the “hERG current change (%, negative = inhibition) at 1uM” value is reported as 6.19%.
For `CC(=O)Nc1ccc(S(=O)(=O)N2CCN=C2SCc2ccc([N+](=O)[O-])cc2)cc1`, the “hERG current change (%, negative = inhibition) at 1uM” value was -4.86%.
`C/C(CC(=O)Nc1ccc(OCc2ccccc2)cc1)=N\NC(=O)C(=O)Nc1ccccc1C` was tested, and the “hERG current change (%, negative = inhibition) at 1uM” value was 12%.
`CC(C)N1C(=O)N(c2ccc(Cl)cc2)C(C)(O)CC1(C)C` (centres unmarked) was tested, and the “hERG current change (%, negative = inhibition) at 1uM” value was 13.3%.
In the case of `Cc1cc(N2CCOCC2)n2cc(-c3ccc(F)cc3)nc2n1`, the “hERG current change (%, negative = inhibition) at 1uM” value is reported as -34.9%.
In the case of `CCOC(=O)c1ccc(Nc2cc(C)nc3nc(C)nn23)cc1`, the “hERG current change (%, negative = inhibition) at 1uM” value is reported as -24.3%.
`Cc1ccccc1-c1nnc(SCC(=O)NC2CCCCC2)o1` was tested, and the “hERG current change (%, negative = inhibition) at 1uM” value was 7.02%.
With `COC(=O)/C=C1\S/C(=N/NC(=O)c2ccc(OC)cc2)NC1=O` the “hERG current change (%, negative = inhibition) at 1uM” value was 14.4%.
For `CCOc1ccc(Br)cc1S(=O)(=O)Nc1ccc(NC(=O)c2ccccc2F)cc1`, the “hERG current change (%, negative = inhibition) at 1uM” value was 8.75%.
With `CC(C)(C)N(NC(=O)Nc1ccc(Cl)cc1)C(=O)c1ccccc1` the “hERG current change (%, negative = inhibition) at 1uM” value was -0.642%.
For `O=C(NC1CCCC1)C1CC(=O)N(c2ccccc2)C1` (centres unmarked), the “hERG current change (%, negative = inhibition) at 1uM” value was 19.8%.
